Some of the results follow. Single values are uncertain, as repeats are few or missing.
Test system: WM3526
Assay: cell count relative to DMSO control; melanoma cells; higher = more viable cells
Settings: library dose: standard library concentration; 72 h
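Further: cells treated in 1,536-well plates, then fixed and DAPI-stained, with nuclei counted from automated high-throughput microscope images.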

Row | SMILES | cell count [%]
1 | O=C(/C=C/c1cccnc1)NCCCCC1CCN(C(=O)c2ccccc2)CC1 + Cc1cc([N+](=O)[O-])ccc1NS(=O)(=O)c1cc(Cl)ccc1Cl [FH535] (first compound 0.05 µM, partner dose 5 µM) | 88
2 | Cc1ccc(Nc2nccc(N(C)c3ccc4c(C)n(C)nc4c3)n2)cc1S(N)(=O)=O [Pazopanib] + O=C(Nc1ccccc1)c1cc([N+](=O)[O-])ccc1Cl [GW9662] (first compound 2 µM, partner dose 10 µM) | 86.3
3 | Cc1ccc(Nc2nccc(N(C)c3ccc4c(C)n(C)nc4c3)n2)cc1S(N)(=O)=O [Pazopanib] + COc1ccc(COc2ccc(Cc3cnc(N)nc3N)cc2OC)cc1 [GW2580] (first compound 2 µM, partner dose 5 µM) | 69.6

From the supplement of paper PMC4604168 (melanoma cell lines)
